Hit rate of the full screen: of about 270,000 compounds, about 5,800 (2.1%) were called active. Inconclusive means that the source gave no clear call. Such entries were picked first, then a sample of the others. Calls follow the shape of the dose curve; as a rule, active = well fitted inhibition curve with a large enough effect; inconclusive = small, poorly fitted or top-dose-only effect; inactive = flat fitted curve, though single readings scatter. Potencies of inconclusive entries are doubtful fits and often do not repeat. Some compounds were tested as several samples or in several runs, with calls that do not always agree.
target: Microtubule-associated protein tau (Homo sapiens) (UniProt P10636); test: qHTS for Inhibitors of Tau Fibril Formation, Thioflavin T Binding; conditions: recombinant tau K18 P301L (four-repeat tau fragment), heparin-induced fibrillization, ThT fluorescence; series mostly up to 57.4 µM; activity, negative = inhibition: at the top concentration; also: nearly all actives have a fitted effect of over 55% in size
Chain of UniProt P10636 (P10636 whole entry, looked up, the tested form may be a part): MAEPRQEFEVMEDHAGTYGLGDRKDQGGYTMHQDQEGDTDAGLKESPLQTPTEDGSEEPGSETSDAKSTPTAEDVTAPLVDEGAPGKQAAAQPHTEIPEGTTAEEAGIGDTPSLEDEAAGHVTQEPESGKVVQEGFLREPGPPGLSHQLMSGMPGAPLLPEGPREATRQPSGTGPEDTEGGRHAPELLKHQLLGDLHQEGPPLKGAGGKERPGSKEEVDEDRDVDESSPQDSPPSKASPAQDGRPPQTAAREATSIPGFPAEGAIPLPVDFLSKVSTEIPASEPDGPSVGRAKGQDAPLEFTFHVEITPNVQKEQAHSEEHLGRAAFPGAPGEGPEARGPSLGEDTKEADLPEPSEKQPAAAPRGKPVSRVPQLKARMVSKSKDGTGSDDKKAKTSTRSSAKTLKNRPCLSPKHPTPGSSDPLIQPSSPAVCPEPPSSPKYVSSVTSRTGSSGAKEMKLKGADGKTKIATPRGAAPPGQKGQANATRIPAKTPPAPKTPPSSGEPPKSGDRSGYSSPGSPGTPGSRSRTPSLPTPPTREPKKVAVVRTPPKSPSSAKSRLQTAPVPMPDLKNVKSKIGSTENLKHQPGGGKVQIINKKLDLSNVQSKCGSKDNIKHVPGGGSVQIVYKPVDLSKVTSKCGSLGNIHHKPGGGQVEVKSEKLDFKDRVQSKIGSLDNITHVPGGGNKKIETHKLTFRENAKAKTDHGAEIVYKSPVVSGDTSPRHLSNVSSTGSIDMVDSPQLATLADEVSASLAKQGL
How it was run: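 In this qHTS, human K18 P301L tau is incubated with compound and heparin for 6 hr at 37 C, and Thioflavin T fluorescence then reports fibril load.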
% is scaled to controls: 0 for no effect and ±100 for the full control effect; potency is read from the fitted curve at half-maximal effect; tags tell the direction and shape of the fitted curve.

**Q.** With `CCN1C(=O)NC(=O)/C(=C/c2cc(C)n(-c3sc(C)c(C)c3C#N)c2C)C1=O` as the compound, how does the Potency read?
**A.** Its Potency is inconclusive: 6.31 µM [inhibitor, single point].

**Q.** For `O=C1/C(=C/c2cccnc2)SC(=NCc2ccccc2)N1Cc1ccccc1`, which Potency is on record?
**A.** The Potency was inconclusive: 39.8 µM [inhibitor, single point].

**Q.** With `CC(N)C(O)c1ccc(O)c(O)c1` (stereo not given) as the compound, how does the Potency read?
**A.** The Potency was active: 7.94 µM.

**Q.** Which Potency does the source give for `O=[N+]([O-])c1ccc(N2CCCC2)c2ccncc12` here?
**A.** Its Potency is active: 12.6 µM.

**Q.** Which “activity, negative = inhibition” value does the source give for `C[C@]12CCC3C(CC[C@H]4C[C@@H](O)CC[C@]34C)[C@@H]1CCC2=O` (stereo not given in full) here?
**A.** Its value is inactive: -6.64%.

**Q.** For `CCC(C)N1C(=O)/C(=C\c2ccc(N3CCCCCC3)cc2)C(=O)NC1=S` (stereo not given), which Potency is on record?
**A.** Its Potency is inconclusive: 25.1 µM [inhibitor, partial curve].

**Q.** How did the Potency turn out when `O=c1[nH]c(=S)[nH]c(O)c1N=Nc1ccc(-c2ccccc2)cc1[N+](=O)[O-]` was run?
**A.** The Potency was active: 3.98 µM.

**Q.** How did the “activity, negative = inhibition” value turn out when `O=C(O)[C@@H]1CCN1` was run?
**A.** Its value is inactive: -20.7%.

**Q.** For `C=CCN1C(=O)/C(=C\c2ccc(N3CCOCC3)o2)C(=O)NC1=S`, which Potency is on record?
**A.** Its Potency is inconclusive: 14.1 µM [inhibitor, partial curve].

**Q.** How did the Potency turn out when `O=C(CN1CCCCC1)c1ccccc1Cl` was run?
**A.** The Potency was inconclusive: 20 µM [inhibitor, single point].

**Q.** For `CCOC(=O)C1=C(N)OC2=C(C(=O)CC(C)(C)C2)C12C(=O)Nc1ccccc12` (stereo not given), which Potency is on record?
**A.** Its Potency is inconclusive: 0.251 µM [inhibitor, full curve].

**Q.** Which Potency does the source give for `Cc1ccc(NC(=O)Nc2cc3c(cc2N2CCCCC2)n(C)c(=O)n3C)cc1Cl` here?
**A.** Its Potency is inconclusive: 8.91 µM [inhibitor, partial curve, poor fit].

**Q.** `COc1cccc(N2C(=O)NC(=O)/C(=C\c3ccc([N+](=O)[O-])s3)C2=O)c1` was tested. Which Potency did it give?
**A.** Its Potency is active: 14.1 µM.

**Q.** With `Nc1cc2nc3ccccc3nc2cc1N` as the compound, how does the Potency read?
**A.** The Potency was active: 10 µM.

**Q.** For `N#CSCC(=O)N1c2ccccc2CCc2ccccc21`, which Potency is on record?
**A.** Its Potency is active: 14.1 µM.

**Q.** With `COc1ccc(NC(=O)c2sc3nc4c(cc3c2N)N2CCC4CC2)cc1OC` as the compound, how does the Potency read?
**A.** The Potency was inconclusive: 11.2 µM [inhibitor, partial curve].

**Q.** For `CN1C(=O)C(=Cc2ccc(N3CCOCC3)o2)C(=O)N(C)C1=S`, which Potency is on record?
**A.** Its Potency is inconclusive: 10 µM [inhibitor, partial curve].

**Q.** With `COC(=O)[C@@H]1[C@@H](C(=O)OC)C2(c3ccccc3-c3ccccc32)N(c2ccc(Cl)cc2)N1C#N` as the compound, how does the Potency read?
**A.** The Potency was active: 25.1 µM.

**Q.** How did the Potency turn out when `COCCOC(=O)c1c(N)n(Cc2ccccc2)c2nc3ccccc3nc12` was run?
**A.** The Potency was inconclusive: 39.8 µM [inhibitor, single point].

**Q.** With `CCCCC/C=C\C/C=C\C/C=C\C/C=C\CCCC(=O)OC(CO)CO` as the compound, how does the Potency read?
**A.** The Potency was inconclusive: 25.1 µM [inhibitor, partial curve].

Reference: PubChem BioAssay AID1460 (National Center for Advancing Translational Sciences (NCATS), 2008)
